The campaign covered roughly 310,000 compounds. About 14,000 (4.5%) showed an effect of 50% or more. The effect is printed as a negative number. Some of the results follow.
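Note: peak tail current of the secondary pulse compared with the same well before compound.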

Chain of human ether-à-go-go-related gene (hERG) potassium channel (Q12809 whole entry, looked up): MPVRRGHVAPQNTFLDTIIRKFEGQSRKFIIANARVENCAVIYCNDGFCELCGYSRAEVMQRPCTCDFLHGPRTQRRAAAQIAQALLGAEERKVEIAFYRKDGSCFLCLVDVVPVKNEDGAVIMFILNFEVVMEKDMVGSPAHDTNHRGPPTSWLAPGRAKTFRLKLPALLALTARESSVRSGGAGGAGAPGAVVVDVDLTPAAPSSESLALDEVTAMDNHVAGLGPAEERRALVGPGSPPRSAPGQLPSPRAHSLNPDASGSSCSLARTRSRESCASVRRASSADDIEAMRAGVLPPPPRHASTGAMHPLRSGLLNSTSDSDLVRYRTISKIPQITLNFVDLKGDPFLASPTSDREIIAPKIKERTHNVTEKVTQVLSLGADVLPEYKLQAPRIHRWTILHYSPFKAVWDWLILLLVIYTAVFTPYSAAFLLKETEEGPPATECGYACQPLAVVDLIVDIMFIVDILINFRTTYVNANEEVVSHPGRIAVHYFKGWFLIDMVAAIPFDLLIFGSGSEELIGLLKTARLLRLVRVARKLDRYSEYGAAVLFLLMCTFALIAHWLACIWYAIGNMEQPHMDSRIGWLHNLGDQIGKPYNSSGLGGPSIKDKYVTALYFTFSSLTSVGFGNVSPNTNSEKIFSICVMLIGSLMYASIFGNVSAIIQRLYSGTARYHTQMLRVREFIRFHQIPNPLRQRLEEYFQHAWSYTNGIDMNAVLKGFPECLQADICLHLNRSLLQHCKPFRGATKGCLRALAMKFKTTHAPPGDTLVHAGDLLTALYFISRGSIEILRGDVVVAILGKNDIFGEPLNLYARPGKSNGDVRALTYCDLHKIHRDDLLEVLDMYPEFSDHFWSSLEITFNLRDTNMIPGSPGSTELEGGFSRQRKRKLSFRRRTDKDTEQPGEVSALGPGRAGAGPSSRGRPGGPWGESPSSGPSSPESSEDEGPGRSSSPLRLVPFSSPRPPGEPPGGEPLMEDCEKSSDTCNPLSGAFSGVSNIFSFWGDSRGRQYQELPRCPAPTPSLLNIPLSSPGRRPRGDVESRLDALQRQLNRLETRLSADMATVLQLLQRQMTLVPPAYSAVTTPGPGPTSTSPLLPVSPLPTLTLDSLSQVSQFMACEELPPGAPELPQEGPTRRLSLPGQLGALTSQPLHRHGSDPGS

The experiment addresses human ether-à-go-go-related gene (hERG) potassium channel (human, UniProt Q12809). The experiment in a line: primary screen, population patch clamp on CHO cells stably expressing hERG.
Consider `CN(c1ccccc1)S(=O)(=O)c1ccc2[nH]c(=O)[nH]c2c1`, for which the “hERG current change (%, negative = inhibition) at 10uM” value is recorded as 4.25%. For `O=C(c1ccccn1)N(Cc1ccco1)C1(C(=O)NC2CCCC2)CCCCC1` the value was -5.62%; for `CC#C[C@@H](CC)c1ccc2ccn(C)c2c1`, -4.51%; for `Cc1cc(C)c(NC(=O)CSc2nc(=O)n(CCN3CCOCC3)c3c2CCCC3)c(C)c1`, -28.3%. With `CCOC(=O)N1CCN(C(=O)c2cn(CC(C)C)c(=O)c3c2c2ccccc2n3C)CC1` the figure was -24.4%; with `Cc1cccc[n+]1CC(=O)c1ccccc1.[Br-]`, 7.9%.

On to `O=C1C=C(NNC(=O)c2ccncc2)CC(c2ccccc2)C1` (centres unmarked), for which the “hERG current change (%, negative = inhibition) at 10uM” value is -1.64%. Regarding `NNC(=O)c1ccc(CSc2nc3ccccc3[nH]2)cc1`, the “hERG current change (%, negative = inhibition) at 10uM” value is listed as 21.8%. With `Cc1cc(C)nc(NS(=O)(=O)c2ccc(NC(=O)CCC(=O)O)cc2)n1` the figure was 14.8%; with `COc1ccccc1Nc1cc(C(=O)NC2CCCC2)c2ccccc2n1`, 12.9%. With `O=C(CCSCc1ccc(Cl)cc1)NCc1cccs1` the figure was -44.9%; with `Cc1cc(C)c(NS(=O)(=O)c2ccc3c(c2)NC(=O)C(C)C(=O)N3)c(C)c1` (centres unmarked), 2.12%. For `O=C1/C(=C/c2ccc(O)cc2)SC(=S)N1CC1CCCO1` (centres unmarked) the value was 4.44%; for `COCCNC(=O)c1ccc(CS(=O)(=O)c2ccccc2OC)o1`, 14.1%. Regarding `Cc1ccc(C)c(S(=O)(=O)N2CCCOC2CNC(=O)C(=O)NCc2ccco2)c1` (centres unmarked), the “hERG current change (%, negative = inhibition) at 10uM” value was 11.6%. For `Nc1ccc(-c2nnc(-c3ccc(N)cc3)o2)cc1` the value was -7.98%.

Regarding `Cn1cc(CN2CCN(CC(C)(C)C)C(CCO)C2)c2ccccc21` (centres unmarked), the “hERG current change (%, negative = inhibition) at 10uM” value is listed as 5.09%. With `CC(C)C1NC(C(=O)O)Cc2c1[nH]c1ccccc21` (centres unmarked) the figure was -19.5%; with `COc1ccc(CCNc2ccc(C(CC(N)=O)NC(=O)c3cc(OC)ccc3OC)cc2[N+](=O)[O-])cc1` (centres unmarked), -0.728%. For `O=[N+]([O-])c1ccc(CN2CCOCCOCCN(Cc3ccc([N+](=O)[O-])cc3)CCOCC2)cc1` the value was -77.8%; for `COc1ccc(NC(=O)Nc2cccs2)cn1`, 11.5%. For `CCOc1cc(N2CCOCC2)c(OCC)cc1NC(=O)c1c(-c2ccccc2)noc1C` the value was -25.5%; for `CCN1C[C@]2(CO)CC[C@H](OC)[C@@]34C5C[C@H]6[C@H](OC)C5[C@](O)(C[C@H]6OC)[C@@H](C(OC)C23)[C@@H]14` (some centres unmarked), 2.04%; for `Cc1nn(CC(=O)NCCc2ccco2)c(=O)c2nn(-c3ccccc3)c(C)c12`, 5.5%. Turning to `O=C(Nc1ccccc1N1CCOCC1)c1cccc(S(=O)(=O)N2CCOCC2)c1`, the “hERG current change (%, negative = inhibition) at 10uM” value is given as -30.5%. For `COc1cccc(NS(=O)(=O)c2ccc3[nH]cc(C(=O)NCCCOC(C)C)c(=O)c3c2)c1` the value was 11.5%.

Consider `COc1cc(C(=S)N2CCN(C(c3ccccc3)c3ccccc3)CC2)cc(OC)c1O`, for which the “hERG current change (%, negative = inhibition) at 10uM” value was 24.3%. `Cc1ccc(/C(N)=N/OC(=O)C(C)c2ccc([N+](=O)[O-])cc2)cc1` (centres unmarked): the “hERG current change (%, negative = inhibition) at 10uM” value is -4.62%.

Regarding `CCCCc1ccc(/C=C2\C(=O)ON=C2c2ccccc2)s1`, the “hERG current change (%, negative = inhibition) at 10uM” value stood at 33.3%. With `CCCCC(C(=O)OCC(=O)c1ccc(OC)cc1)N1C(=O)c2ccccc2C1=O` (centres unmarked) the figure was 3.96%. For `C=CCNC(=O)c1ccc2nc(Cc3ccc(OC)cc3)oc2c1`, the “hERG current change (%, negative = inhibition) at 10uM” value was 6.74%.

For the molecule `Cc1ccc(Nc2cc(C)nc3ccccc23)c(C)c1`, the “hERG current change (%, negative = inhibition) at 10uM” value is -42.8%. In the case of `CCn1c(CC(=O)Nc2ccccc2C)nnc1SCC(=O)Nc1nncs1`, the “hERG current change (%, negative = inhibition) at 10uM” value was determined as 17.3%. For `COc1ccc(S(=O)(=O)NCCc2nnc3ccc(SCC(=O)Nc4nc(C)cs4)nn23)cc1`, the “hERG current change (%, negative = inhibition) at 10uM” value came to 25.3%. With `CC(C)(C)c1cc(NC(=O)c2cccs2)no1` the figure was 6.66%; with `Cc1ccccc1-c1noc(C(C)NC(=O)c2ccco2)n1` (centres unmarked), 8.48%. For `C/C(CC1(O)C(=O)Nc2ccccc21)=N\O` (centres unmarked) the value was 26.8%; for `COc1ccc(NC(=O)Cn2ncn3nc(-c4ccc(OC)cc4)cc3c2=O)cc1`, 18.4%; for `CN1CC(=O)N(CC(=O)NCc2ccc(F)cc2)c2ccccc2C1=O`, 9.9%. Take `O=C(NCCOc1ccccc1)C1Nc2ccc(OC(F)(F)F)cc2C2C=CCC12` (centres unmarked): the “hERG current change (%, negative = inhibition) at 10uM” value is -11%. With `COc1ccc(C(=O)NNC(=O)c2cc3cccc(OC)c3oc2=O)cc1` the figure was 14.1%; with `COc1ccc(C(=O)NCCCN=C2NS(=O)(=O)c3ccccc32)cc1`, 18.6%. With `O=C(NCc1ccco1)Nc1ccc(Br)cc1Cl` the figure was -44%. With `CCC(C)(C)NC(=O)C(c1ccc(C)cc1)N(Cc1cccnc1)C(=O)c1csnn1` (centres unmarked) the figure was -8.91%.

For the origin of these results see paper PMC4336329 (PLoS ONE, 2015).
